# Measurements reported in the supplement of paper PMC8007513.
# Where a name gives a salt, the structure may show the parent alone. ± gives the standard error. In all, about 1,300 compounds went through this assay and about 75 (6%) showed an effect of 50% or more. The list shows a part of the results.
# System: Trichoderma virens ATCC 9645
# Test: growth yield (OD600) relative to untreated control; higher = less growth inhibition
# Conditions: compound concentration: 100 uM
# Outline: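 Growth appears as means of duplicate screens, relative to the control containing neither agent. To obtain it, OD600 was read on a BioTek EL800 at 40 h and 72 h. The cultures were 100 μl aliquots in 96-well plates at 30 °C, holding Trichoderma virens ATCC 9645 spores at 15,000 spores ml^−1 in potato dextrose broth, library compounds at 100 μM final, and, in some wells, a biocide at 200 ng ml^−1.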
Compound,growth yield (40 h) [%],growth yield (72 h) [%]
CC(=O)OCC1=C(C(=O)O)N2C(=O)[C@@H](NC(=O)Cc3cccs3)[C@H]2SC1 [Cephalothin sodium salt],91.5 ± 2.5,86.3 ± 2.6
Clc1ccc(C(Cn2ccnc2)OCc2csc3c(Cl)cccc23)c(Cl)c1 (stereo unspecified) [Sertaconazole nitrate],3.81,2.73
CC1(C)S[C@@H]2[C@H](NC(=O)Cc3ccccc3)C(=O)N2[C@H]1C(=O)O [Benzylpenicillin sodium],108 ± 1.6,104 ± 1.6
CC1(C)S[C@@H]2[C@H](NC(=O)Cc3ccccc3)C(=O)N2[C@H]1C(=O)O [Benzathine benzylpenicillin],103 ± 3.8,96.5 ± 1.1
CCCCc1nc(Cl)c(CO)n1Cc1ccc(-c2ccccc2-c2nnn[nH]2)cc1 [Losartan],102 ± 2.1,99.6 ± 1.7
O=C1CCC(N2C(=O)c3ccccc3C2=O)C(=O)N1 (stereo unspecified) [Thalidomide],102 ± 1.1,103 ± 1.3
O=C1NCCN1CCN1CCC(c2cn(-c3ccc(F)cc3)c3ccc(Cl)cc23)CC1 [Sertindole],34.5 ± 20,111 ± 2.4
O=C1OC(CN2CCOCC2)CN1/N=C/c1ccc([N+](=O)[O-])o1 (stereo unspecified) [Furaltadone hydrochloride],97.1 ± 4.3,100 ± 2.7
CNCCCN1c2ccccc2CCc2ccccc21 [Desipramine hydrochloride],94.83 ± 0.48,99.84 ± 0.42
O=C(O)CCNC(=O)c1ccc(/N=N/c2ccc(O)c(C(=O)O)c2)cc1 [Balsalazide Sodium],107 ± 1.4,101.9 ± 0.84
C[n+]1ccccc1/C=N/O [Pralidoxime chloride],103 ± 1.8,100.4 ± 0.94
Cc1cccc(Nc2ccccc2C(=O)O)c1C [Mefenamic acid],85.1 ± 2.5,86 ± 2.7
CCC(C)n1ncn(-c2ccc(N3CCN(c4ccc(OCC5COC(Cn6cncn6)(c6ccc(Cl)cc6Cl)O5)cc4)CC3)cc2)c1=O (stereo unspecified) [Itraconazole],4.77 ± 2.2,13.2
"CC(C)NCC(O)c1cc(O)cc(O)c1 (stereo unspecified) [Metaproterenol sulfate, orciprenaline sulfate]",99.1 ± 1.6,99.95 ± 0.1
O=C(O)CN(CCN(CC(=O)O)CC(=O)O)CCN(CC(=O)O)CC(=O)O [Pentetic acid],88.8 ± 5.2,91.8 ± 4.1
C#CCN(C)CCCOc1ccc(Cl)cc1Cl [Clorgyline hydrochloride],91.7 ± 1.8,101 ± 3.1
Cn1c(=O)c2c(ncn2CCO)n(C)c1=O [Etofylline],102.5 ± 0.48,102 ± 1.1
COc1ccccc1N1CCN(CCCNc2cc(=O)n(C)c(=O)n2C)CC1 [Urapidil hydrochloride],102 ± 4.5,99.6 ± 1.1
COc1nc(N)nc2c1ncn2[C@@H]1O[C@H](CO)[C@@H](O)[C@@H]1O [Nelarabine],112 ± 2.9,106 ± 3.8
CCC(=O)OCC(=O)[C@@]1(OC(=O)CC)[C@@H](C)C[C@H]2[C@@H]3CCC4=CC(=O)C=C[C@]4(C)[C@@]3(Cl)[C@@H](O)C[C@@]21C [Beclomethasone dipropionate],103 ± 7.8,98.7 ± 3
CCN(CC)Cc1cc(Nc2ccnc3cc(Cl)ccc23)ccc1O [Amodiaquin dihydrochloride dihydrate],102 ± 0.32,105 ± 0.52
OCCN1C[C@H](O)[C@@H](O)[C@H](O)[C@H]1CO [Miglitol],101 ± 3,103 ± 3.1

Compound,growth yield (40 h) [%],growth yield (72 h) [%]
Cn1cnc([N+](=O)[O-])c1Sc1ncnc2[nH]cnc12 [Azathioprine],103.1 ± 0.48,104.56 ± 0.1
CC(C)C(=O)Nc1ccc([N+](=O)[O-])c(C(F)(F)F)c1 [Flutamide],82 ± 3.2,85.1 ± 2.4
O=C(O)CCCC[C@@H]1SC[C@@H]2NC(=O)N[C@@H]21 [Biotin],95.6,98.2
COCC(=O)Nc1c(I)c(C(=O)NCC(O)CO)c(I)c(C(=O)N(C)CC(O)CO)c1I (stereo unspecified) [Iopromide],98.8 ± 3.2,95.5 ± 1.1
CC1COc2c(N3CCN(C)CC3)c(F)cc3c(=O)c(C(=O)O)cn1c23 (stereo unspecified) [Ofloxacin],95.3 ± 0.95,95.9 ± 1.7
C[C@H](CCC(=O)O)[C@H]1CC[C@H]2[C@@H]3CC[C@@H]4C[C@H](O)CC[C@]4(C)[C@H]3CC[C@]12C [Lithocholic acid],104 ± 14,96.4 ± 9.8
CC(=O)SCC(Cc1ccccc1)C(=O)NCC(=O)OCc1ccccc1 (stereo unspecified) [Racecadotril],105 ± 2.9,105 ± 2.4
COC(=O)C1=C(C)NC(C)=C(C(=O)OC(C)C)C1c1cccc2nonc12 (stereo unspecified) [Isradipine],108 ± 6.5,101 ± 2.6
CN1CCC(OC(c2ccccc2)c2ccccc2)CC1 [Diphenylpyraline hydrochloride],94.2 ± 4,93.3 ± 1.5
O=C(Oc1cccc2cccnc12)c1ccccc1 [Benzoxiquine],57.3 ± 2.7,66.9 ± 2.3
Clc1ccc(Nc2nnc(Cc3ccncc3)c3ccccc23)cc1 [Vatalanib],91.3 ± 4.3,94.7 ± 6.4
CN(C/C=C/C#CC(C)(C)C)Cc1cccc2ccccc12 [Terbinafine],2.7 ± 0.16,2.52
O=c1[nH]cnc2c1ncn2[C@H]1CC[C@@H](CO)O1 [Didanosine],61.95 ± 0.32,57.58 ± 0.32
Fc1ccc([C@@H]2CCNC[C@H]2COc2ccc3c(c2)OCO3)cc1 [Paroxetine Hydrochloride],91.7 ± 3,101 ± 3.6
Nc1nc(O)c2ncn(CCC(CO)CO)c2n1 [Penciclovir],100 ± 1.9,101.6 ± 0.73
NC(CO)C(=O)NNCc1ccc(O)c(O)c1O (stereo unspecified) [Benserazide hydrochloride],85.3 ± 3.3,80.3 ± 5.7
CN(C)CCCN1c2ccccc2CCc2ccccc21 [Imipramine hydrochloride],97.2 ± 3.8,97.3 ± 3.6
C[C@H]1COc2c(N3CCN(C)CC3)c(F)cc3c(=O)c(C(=O)O)cn1c23 [Levofloxacin],99.4 ± 5.7,96.6 ± 3.9
NCCC[C@H](N)CC(=O)N[C@H]1CNC(=O)[C@H]([C@H]2C[C@H](O)NC(N)=N2)NC(=O)/C(=C/NC(N)=O)NC(=O)[C@H](CO)NC(=O)[C@H](CO)NC1=O [Viomycin sulfate],95.5 ± 3,87.6 ± 0.94
O=C1c2cccc3c2[C@H](CCC3)CN1[C@@H]1CN2CCC1CC2 [Palonosetron hydrochloride],103 ± 6,99 ± 4.2
NCC[C@H](O)C(=O)N[C@@H]1C[C@H](N)[C@@H](O[C@H]2O[C@H](CN)[C@@H](O)[C@H](O)[C@H]2O)[C@H](O)[C@H]1O[C@H]1O[C@H](CO)[C@@H](O)[C@H](N)[C@H]1O [Amikacin hydrate],99.3 ± 3.3,100 ± 2.9
